According to PubChem BioAssay AID651820 (National Center for Advancing Translational Sciences (NCATS), 2012):
About 12,000 (3.5%) of roughly 340,000 compounds were called active. The shares of active, inactive and inconclusive entries below differ from those in the screen. Calls follow the shape of the dose curve; as a rule, active = well fitted inhibition curve with a large enough effect; inconclusive = small, poorly fitted or top-dose-only effect, or another doubt; inactive = no such curve, though single readings can be large or run the other way. No potency is given beside an inconclusive call; the fits are too rough.

Experiment: qHTS Assay for Inhibitors of Hepatitis C Virus (HCV)
Details: Huh7.5.1 HCVcc-Cre (HCVcc is cell-culture hepatitis C virus) infection, luciferase reporter, 44 h; series mostly up to 41.8 µM
Outline: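 Whole-lifecycle infectious HCVcc-Cre system; cells 1,000/well, compound then virus (~0.5 moi) added 4 h after plating, 44 h culture. Luciferase read 15 sec following 15 min substrate incubation, room temp.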
Potency is read from the fitted curve at half-maximal effect; tags tell the direction and shape of the fitted curve.

Row | SMILES | Potency
1 | CN(NC(=O)c1ccccc1F)c1nc(C(F)(F)F)nc2ccccc12 | inconclusive [inhibitor, partial curve, poor fit]
2 | CCOCCCNC(=S)N(CCCN(C)C)Cc1cc2cc3c(cc2[nH]c1=O)OCCO3 | inactive
3 | Cc1ccc(S(=O)(=O)NNC(=O)c2snnc2C)cc1 | inconclusive [inhibitor, single point]
4 | Cc1noc(C)c1COC(=O)C1CCN(C(=O)c2ccc(Cl)cc2)CC1 | inconclusive [inhibitor, single point]
5 | COc1cccc(CN2C(=O)C(C)N(C(=O)c3ccccc3)c3ccccc32)c1 (stereo not given) | inconclusive [inhibitor, single point]
6 | CC1CCCCC1NC(=O)CSc1nnc(COc2ccc(Cl)cc2)o1 (stereo not given) | inactive
7 | CC(CCc1ccc(O)cc1)NCc1ccc(Br)cc1 (stereo not given) | inconclusive [inhibitor, single point]
8 | CS(=O)(=O)N(CCc1ccccc1)CC(=O)Nc1ccc(OCc2ccccc2)cc1 | inconclusive [inhibitor, single point]
9 | COc1ccc(CC(=O)Nc2nc(-c3cc(OC)ccc3OC)cs2)cc1 | active: 12.6 µM
10 | CCOc1c(Br)cc(C2CC(=O)Nc3cc(OC)c(OC)cc32)cc1OC (stereo not given) | inconclusive [inhibitor, single point]
11 | CNc1nc(Cl)c(SC)c(N2CCOCC2)n1 | active: 0.891 µM
12 | CCOC(=O)c1cnc(-n2nc(C)cc2C)nc1Oc1ccccc1F | inactive
13 | CC(C)CC(=O)C1CCCN(C(=O)c2ccc3oc(Cc4ccccc4)nc3c2)C1 (stereo not given) | active: 22.4 µM
14 | CCOC(=O)CSC1=C(C#N)C(c2ccc(C)s2)CC(=O)N1 (stereo not given) | inconclusive [inhibitor, partial curve]
15 | O=C(OC(c1ccccc1)c1nccc2ccccc12)c1ccccc1 (stereo not given) | inconclusive [inhibitor, single point]
16 | Cc1ccc(-c2csc(=S)n2CC(=O)OCC(=O)NCc2ccco2)cc1 | inconclusive [inhibitor, single point]
17 | COc1ccc(CCNc2cc(N3CCN(C(=O)c4ccccc4F)CC3)ccc2[N+](=O)[O-])cc1OC | inconclusive [inhibitor, full curve, poor fit]
18 | Cc1ccc(S(=O)(=O)N(C)c2ccc(C(=O)N3CCc4ccccc4C3)cc2)cc1 | inconclusive [inhibitor, single point]
19 | Cc1noc(C)c1COc1ccccc1C(=O)NC(C)c1ccc(Cl)cc1 (stereo not given) | inconclusive [inhibitor, single point]
20 | CC1CCCN(CCCNC(=O)C2CCC(CNS(=O)(=O)c3cccc4nsnc34)CC2)C1 (stereo not given) | inactive
21 | Cc1ccc(S(=O)(=O)c2c(N)n(CCCO)c3nc4ccccc4nc23)cc1 | inactive
22 | OCCN1CCN(c2ncnc3c2c(-c2ccccc2)cn3-c2ccc(Br)cc2)CC1 | inconclusive [inhibitor, partial curve]
23 | Cc1noc(C)c1S(=O)(=O)N(C)C[C@H]1Oc2ccc(NC(=O)NC(C)C)cc2C(=O)N([C@H](C)CO)C[C@@H]1C | inconclusive [inhibitor, single point]

Row | SMILES | Potency
24 | COC(CNC(=O)C1CCN(S(=O)(=O)c2ccc3nc4c(c(C(=O)O)c3c2)CC(C)CC4)CC1)OC (stereo not given) | inactive
25 | CCCCn1c(O)c(N=Nc2ccccc2O)c2ccccc21 | inconclusive [inhibitor, partial curve]
26 | CCCCNC(=O)C1CCN(Cc2ccc(OCc3ccccc3)cc2)CC1 | inconclusive [inhibitor, partial curve]
27 | CCCCOC(=O)Nc1ccc(N2CCCCC2)cc1 | inactive
28 | CC(C)CN1C(=O)NC2(CCCc3ccccc32)C1=O (stereo not given) | inactive
29 | COc1ccc(S(=O)(=O)N2CCCC2CNC(=O)C(=O)NCc2ccc(C)cc2)cc1 (stereo not given) | inactive
30 | N#Cc1ccc(-c2cccs2)nc1SCc1cccnc1 | inconclusive [inhibitor, partial curve]
31 | CCN(CC)c1cc(C)c2cc(NC(=O)c3ccccc3F)ccc2n1 | active: 10 µM
32 | CCOc1cc(/C=N/NC(=O)c2nn(C)cc2Br)ccc1OCc1ccccc1 | inconclusive [inhibitor, full curve]
33 | COc1ccc(C(C(=O)NCc2ccccc2)N(C(=O)c2snc(C(N)=O)c2N)C2CCCC2)cc1O (stereo not given) | inactive
34 | Cc1oc(-c2ccc(Cl)cc2)nc1CN1CCC(C(=O)NCCCN2CCCC(C)C2)CC1 (stereo not given) | active: 1.78 µM
35 | CCOC(=O)C1(CCOC)CCN(C/C=C/c2ccccc2OC)CC1 | active: 11.2 µM
36 | Cc1ccc(C2(C)NC(=O)N(CC(=O)NCCN3C(=O)S/C(=C\c4cccnc4)C3=O)C2=O)cc1 (stereo not given) | inconclusive [inhibitor, partial curve, poor fit]
37 | CCn1c(C)c(C)c2cc(C(=O)Nc3cccc(Cl)c3)ccc21 | active: 2 µM
38 | CC(=O)Oc1ccc(-c2cccc(C(=O)Oc3ccccc3)c2)cc1 | inconclusive [inhibitor, single point]
39 | CCOC(=O)c1c(NC(=O)CN2C(=O)NC3(CCCC3)C2=O)sc(C)c1CC | inconclusive [inhibitor, partial curve]
40 | O=c1c(Cl)c(N2CCC3(CC2)OCCO3)cnn1C12CC3CC(CC(C3)C1)C2 | inactive
41 | CCN1CCN(c2ccc(S(=O)(=O)N3CCCCC3)cc2NC(=O)Cc2ccc(Cl)c(Cl)c2)CC1 | inconclusive [inhibitor, partial curve, poor fit]
42 | O=C(Nc1ccc(N2CCOCC2)nc1N1CCOCC1)c1cccc(C(F)(F)F)c1 | inconclusive [inhibitor, full curve, poor fit]
43 | COc1cccc(-c2nnn(CC(C)=O)n2)c1 | inactive
44 | O=C(O)CC(NS(=O)(=O)c1cccc2nsnc12)c1ccc(F)cc1 (stereo not given) | inactive
45 | COCCn1ccc2c(OCC(=O)Nc3ccccc3OC)cccc2c1=O | inconclusive [inhibitor, single point]
